Here are results for seven compounds from ChEMBL document CHEMBL1961873, “Compounds: GSK PKIS; Assays: Nanosyn kinase panel” (2012).

Structures are written as SMILES. For some of these results: Most of the strong results are listed elsewhere, so they are rarer here than in the full data. The list shows a part of the results, in another mix than the full data.

In test [1] the target is T1, Aurora kinase A (Homo sapiens) (UniProt O14965).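 Further: values are mean percent inhibition.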
T1 sequence (whole entry): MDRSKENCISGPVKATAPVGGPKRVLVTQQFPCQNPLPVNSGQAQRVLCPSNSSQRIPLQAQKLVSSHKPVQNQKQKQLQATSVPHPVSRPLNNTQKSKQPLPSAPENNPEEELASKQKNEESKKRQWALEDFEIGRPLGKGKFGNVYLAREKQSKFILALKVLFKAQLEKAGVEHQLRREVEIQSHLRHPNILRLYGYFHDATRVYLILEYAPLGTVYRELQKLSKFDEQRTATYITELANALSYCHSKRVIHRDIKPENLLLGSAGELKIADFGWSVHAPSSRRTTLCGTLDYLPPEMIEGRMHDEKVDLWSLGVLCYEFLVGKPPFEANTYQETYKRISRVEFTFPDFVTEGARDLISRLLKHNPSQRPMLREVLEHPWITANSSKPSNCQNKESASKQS
As to conditions: at 1 µM.

The target in test [2] is Aurora kinase B (Homo sapiens) (UniProt Q96GD4). As to conditions: at 0.1 µM.
The target is the same in test [3]. The following applies: at 1 µM.
For test [4], the target named is T2, Aurora kinase C (Homo sapiens) (UniProt Q9UQB9).
T2 sequence (whole entry): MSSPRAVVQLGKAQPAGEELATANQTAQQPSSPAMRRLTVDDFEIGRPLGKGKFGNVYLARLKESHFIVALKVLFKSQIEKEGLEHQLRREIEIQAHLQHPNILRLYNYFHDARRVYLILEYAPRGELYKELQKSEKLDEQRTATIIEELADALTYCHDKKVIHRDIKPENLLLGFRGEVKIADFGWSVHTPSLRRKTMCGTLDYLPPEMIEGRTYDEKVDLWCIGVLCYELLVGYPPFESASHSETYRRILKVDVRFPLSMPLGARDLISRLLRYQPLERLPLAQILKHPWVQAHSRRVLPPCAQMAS
The following applies: at 0.1 µM.

The target of test [5] is T2, Aurora kinase C (Homo sapiens). As to conditions: at 1 µM.
In test [6] the target is Serine/threonine-protein kinase 10 (Homo sapiens) (UniProt O94804). The following applies: at 0.1 µM.
Test [7] shares this target. The following applies: at 1 µM.
Test [8] deals with T3, Mitogen-activated protein kinase kinase kinase kinase 2 (Homo sapiens) (UniProt Q12851).
T3 sequence (whole entry): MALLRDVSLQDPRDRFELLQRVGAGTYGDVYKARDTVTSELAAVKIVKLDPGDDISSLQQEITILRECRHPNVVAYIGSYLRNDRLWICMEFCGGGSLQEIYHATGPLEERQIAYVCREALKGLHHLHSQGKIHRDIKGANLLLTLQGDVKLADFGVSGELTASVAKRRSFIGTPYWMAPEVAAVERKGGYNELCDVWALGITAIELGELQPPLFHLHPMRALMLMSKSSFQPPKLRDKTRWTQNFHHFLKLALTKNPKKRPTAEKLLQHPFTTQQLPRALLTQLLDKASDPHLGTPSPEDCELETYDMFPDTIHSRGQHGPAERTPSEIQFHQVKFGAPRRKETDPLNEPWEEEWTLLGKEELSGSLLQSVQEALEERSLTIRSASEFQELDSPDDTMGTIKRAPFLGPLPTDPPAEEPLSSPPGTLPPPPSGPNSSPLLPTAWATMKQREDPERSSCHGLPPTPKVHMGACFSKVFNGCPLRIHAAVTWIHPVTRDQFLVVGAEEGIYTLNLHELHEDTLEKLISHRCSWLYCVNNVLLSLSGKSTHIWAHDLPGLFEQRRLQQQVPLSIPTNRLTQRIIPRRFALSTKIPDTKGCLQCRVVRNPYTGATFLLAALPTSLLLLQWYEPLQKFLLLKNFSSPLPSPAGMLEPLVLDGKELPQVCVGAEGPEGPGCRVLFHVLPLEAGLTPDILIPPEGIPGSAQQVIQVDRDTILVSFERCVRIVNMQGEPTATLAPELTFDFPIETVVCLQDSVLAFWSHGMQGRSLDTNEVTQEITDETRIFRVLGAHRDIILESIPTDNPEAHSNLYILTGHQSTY
As to conditions: at 0.1 µM.

Test [9] concerns the target T3, Mitogen-activated protein kinase kinase kinase kinase 2 (Homo sapiens). The following applies: at 1 µM.
The target in test [10] is Mitogen-activated protein kinase kinase kinase kinase 4 (Homo sapiens) (UniProt O95819). As to conditions: at 0.1 µM.
The target is the same in test [11]. The following applies: at 1 µM.
Test [12] concerns the target Dual specificity mitogen-activated protein kinase kinase 1 (Homo sapiens) (UniProt Q02750). The following applies: at 0.1 µM.
For test [13] the target is unchanged. As to conditions: at 1 µM.
The target of test [14] is Misshapen-like kinase 1 (Homo sapiens) (UniProt Q8N4C8). As to conditions: at 0.1 µM.
The target is the same in test [15]. As to conditions: at 1 µM.
The target of test [16] is T4, Serine/threonine-protein kinase 4 (Homo sapiens) (UniProt Q13043).
T4 sequence (whole entry): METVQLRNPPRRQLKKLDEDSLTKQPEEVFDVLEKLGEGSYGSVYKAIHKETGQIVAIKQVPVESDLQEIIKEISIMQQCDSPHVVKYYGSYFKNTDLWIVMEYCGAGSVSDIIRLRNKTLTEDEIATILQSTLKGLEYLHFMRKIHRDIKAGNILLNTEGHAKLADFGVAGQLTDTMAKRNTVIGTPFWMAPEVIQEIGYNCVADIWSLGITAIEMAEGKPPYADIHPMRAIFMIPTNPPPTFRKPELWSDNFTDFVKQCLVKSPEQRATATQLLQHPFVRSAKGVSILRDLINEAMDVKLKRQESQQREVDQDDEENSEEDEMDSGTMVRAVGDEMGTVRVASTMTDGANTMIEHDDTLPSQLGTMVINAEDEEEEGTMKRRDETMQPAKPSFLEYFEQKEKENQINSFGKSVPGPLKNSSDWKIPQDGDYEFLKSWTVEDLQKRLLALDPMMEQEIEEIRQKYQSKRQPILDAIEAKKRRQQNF
As to conditions: at 0.1 µM.

Test [17] concerns the target T4, Serine/threonine-protein kinase 4 (Homo sapiens). The following applies: at 1 µM.
Test [18] addresses T5, Serine/threonine-protein kinase 3 (Homo sapiens) (UniProt Q13188).
T5 sequence (whole entry): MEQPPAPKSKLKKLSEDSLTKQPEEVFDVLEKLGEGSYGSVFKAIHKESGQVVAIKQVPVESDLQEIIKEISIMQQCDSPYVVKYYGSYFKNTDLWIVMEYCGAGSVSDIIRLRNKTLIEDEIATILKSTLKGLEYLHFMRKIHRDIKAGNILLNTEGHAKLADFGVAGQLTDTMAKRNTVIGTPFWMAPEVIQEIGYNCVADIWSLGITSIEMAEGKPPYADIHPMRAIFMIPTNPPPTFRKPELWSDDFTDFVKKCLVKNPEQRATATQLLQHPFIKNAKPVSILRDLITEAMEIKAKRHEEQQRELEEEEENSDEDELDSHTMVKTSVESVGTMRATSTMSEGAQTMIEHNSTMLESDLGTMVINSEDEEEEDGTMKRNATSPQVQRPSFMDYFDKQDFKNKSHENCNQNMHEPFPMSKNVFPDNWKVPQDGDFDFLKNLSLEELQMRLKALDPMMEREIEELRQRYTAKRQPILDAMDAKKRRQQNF
The following applies: at 0.1 µM.

The target of test [19] is T5, Serine/threonine-protein kinase 3 (Homo sapiens). As to conditions: at 1 µM.
Test [20] has as its target Serine/threonine-protein kinase 26 (Homo sapiens) (UniProt Q9P289). The following applies: at 0.1 µM.
Sequence of UniProt Q9P289 (Q9P289 whole entry, looked up): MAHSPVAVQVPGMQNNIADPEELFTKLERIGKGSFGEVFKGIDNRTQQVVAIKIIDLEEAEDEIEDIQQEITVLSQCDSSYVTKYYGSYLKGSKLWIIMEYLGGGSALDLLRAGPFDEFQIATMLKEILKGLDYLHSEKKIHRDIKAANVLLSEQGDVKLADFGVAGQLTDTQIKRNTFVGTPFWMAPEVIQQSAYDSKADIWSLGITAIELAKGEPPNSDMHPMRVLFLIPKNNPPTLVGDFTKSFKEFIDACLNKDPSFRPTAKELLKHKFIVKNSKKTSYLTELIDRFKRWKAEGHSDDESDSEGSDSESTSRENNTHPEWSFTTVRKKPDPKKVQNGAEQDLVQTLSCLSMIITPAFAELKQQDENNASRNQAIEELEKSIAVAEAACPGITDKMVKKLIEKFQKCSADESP

Sequence of UniProt O94804 (O94804 whole entry, looked up): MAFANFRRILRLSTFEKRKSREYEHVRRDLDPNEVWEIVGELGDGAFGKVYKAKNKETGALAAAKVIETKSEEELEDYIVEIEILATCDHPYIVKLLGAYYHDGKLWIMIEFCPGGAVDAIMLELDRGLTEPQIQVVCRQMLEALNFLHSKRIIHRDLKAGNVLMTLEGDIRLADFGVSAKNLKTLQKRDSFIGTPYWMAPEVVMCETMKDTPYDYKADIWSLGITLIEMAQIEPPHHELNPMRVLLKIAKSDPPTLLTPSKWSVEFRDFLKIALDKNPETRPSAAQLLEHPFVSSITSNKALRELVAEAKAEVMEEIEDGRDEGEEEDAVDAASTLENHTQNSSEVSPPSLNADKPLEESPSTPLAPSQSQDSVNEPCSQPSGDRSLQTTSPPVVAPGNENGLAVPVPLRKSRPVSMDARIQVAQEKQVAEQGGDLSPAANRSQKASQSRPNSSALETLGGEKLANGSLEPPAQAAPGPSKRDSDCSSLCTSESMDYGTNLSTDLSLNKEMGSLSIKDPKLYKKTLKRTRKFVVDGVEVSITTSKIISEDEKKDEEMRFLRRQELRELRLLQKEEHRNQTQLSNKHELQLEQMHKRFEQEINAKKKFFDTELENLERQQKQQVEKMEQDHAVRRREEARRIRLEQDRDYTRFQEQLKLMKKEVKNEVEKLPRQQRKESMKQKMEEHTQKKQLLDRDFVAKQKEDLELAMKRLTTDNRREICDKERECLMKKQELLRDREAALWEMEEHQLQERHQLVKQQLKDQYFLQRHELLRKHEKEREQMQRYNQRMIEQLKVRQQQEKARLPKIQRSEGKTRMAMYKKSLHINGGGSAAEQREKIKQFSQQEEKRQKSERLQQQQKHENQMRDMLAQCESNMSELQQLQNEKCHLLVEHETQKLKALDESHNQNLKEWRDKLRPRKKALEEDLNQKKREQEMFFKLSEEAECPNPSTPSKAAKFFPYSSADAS
Sequence of UniProt Q8N4C8 (Q8N4C8 whole entry, looked up): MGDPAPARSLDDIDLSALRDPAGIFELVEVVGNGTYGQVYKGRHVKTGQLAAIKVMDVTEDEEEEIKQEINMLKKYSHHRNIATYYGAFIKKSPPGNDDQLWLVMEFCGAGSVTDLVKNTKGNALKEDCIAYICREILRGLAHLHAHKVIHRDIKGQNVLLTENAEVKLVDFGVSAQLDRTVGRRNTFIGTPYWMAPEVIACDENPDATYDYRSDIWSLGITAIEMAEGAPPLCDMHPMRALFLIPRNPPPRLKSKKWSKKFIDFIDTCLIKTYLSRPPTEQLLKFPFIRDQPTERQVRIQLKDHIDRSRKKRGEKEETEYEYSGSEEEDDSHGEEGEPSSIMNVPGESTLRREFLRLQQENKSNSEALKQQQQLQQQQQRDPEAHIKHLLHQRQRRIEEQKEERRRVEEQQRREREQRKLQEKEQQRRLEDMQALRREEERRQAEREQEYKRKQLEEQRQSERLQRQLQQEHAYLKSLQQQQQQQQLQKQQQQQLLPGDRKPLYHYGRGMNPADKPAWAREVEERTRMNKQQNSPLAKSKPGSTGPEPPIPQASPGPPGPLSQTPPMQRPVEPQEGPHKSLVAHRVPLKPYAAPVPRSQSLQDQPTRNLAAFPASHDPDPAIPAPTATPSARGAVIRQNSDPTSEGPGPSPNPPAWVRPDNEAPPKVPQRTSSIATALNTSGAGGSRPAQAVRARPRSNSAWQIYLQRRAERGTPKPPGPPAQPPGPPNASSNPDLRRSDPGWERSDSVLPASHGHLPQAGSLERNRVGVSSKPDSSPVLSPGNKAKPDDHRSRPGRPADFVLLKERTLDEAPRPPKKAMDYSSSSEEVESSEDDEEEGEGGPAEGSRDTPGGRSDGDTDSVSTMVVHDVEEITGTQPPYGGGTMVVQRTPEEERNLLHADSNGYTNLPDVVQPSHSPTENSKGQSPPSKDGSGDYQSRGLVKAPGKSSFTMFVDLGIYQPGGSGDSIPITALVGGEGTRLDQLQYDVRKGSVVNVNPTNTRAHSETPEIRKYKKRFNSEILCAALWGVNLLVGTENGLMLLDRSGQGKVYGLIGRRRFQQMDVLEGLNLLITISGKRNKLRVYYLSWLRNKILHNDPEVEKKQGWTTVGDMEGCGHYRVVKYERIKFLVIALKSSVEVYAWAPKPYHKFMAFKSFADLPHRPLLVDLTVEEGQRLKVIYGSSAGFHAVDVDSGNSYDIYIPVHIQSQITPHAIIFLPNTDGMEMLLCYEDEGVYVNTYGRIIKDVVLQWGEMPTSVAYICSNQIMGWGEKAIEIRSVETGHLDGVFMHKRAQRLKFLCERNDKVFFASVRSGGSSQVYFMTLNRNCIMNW
Sequence of UniProt Q02750 (Q02750 whole entry): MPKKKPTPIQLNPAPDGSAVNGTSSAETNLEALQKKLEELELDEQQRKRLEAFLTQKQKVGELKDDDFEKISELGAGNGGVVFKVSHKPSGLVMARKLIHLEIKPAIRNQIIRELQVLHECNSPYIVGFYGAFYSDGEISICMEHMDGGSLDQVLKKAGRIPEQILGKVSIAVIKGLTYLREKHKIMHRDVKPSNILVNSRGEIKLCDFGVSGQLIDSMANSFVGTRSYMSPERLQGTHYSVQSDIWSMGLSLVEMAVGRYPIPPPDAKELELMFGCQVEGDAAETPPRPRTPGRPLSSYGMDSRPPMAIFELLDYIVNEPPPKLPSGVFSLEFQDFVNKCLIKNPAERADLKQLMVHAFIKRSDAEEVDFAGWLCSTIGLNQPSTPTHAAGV
Sequence of UniProt O95819 (O95819 whole entry, looked up): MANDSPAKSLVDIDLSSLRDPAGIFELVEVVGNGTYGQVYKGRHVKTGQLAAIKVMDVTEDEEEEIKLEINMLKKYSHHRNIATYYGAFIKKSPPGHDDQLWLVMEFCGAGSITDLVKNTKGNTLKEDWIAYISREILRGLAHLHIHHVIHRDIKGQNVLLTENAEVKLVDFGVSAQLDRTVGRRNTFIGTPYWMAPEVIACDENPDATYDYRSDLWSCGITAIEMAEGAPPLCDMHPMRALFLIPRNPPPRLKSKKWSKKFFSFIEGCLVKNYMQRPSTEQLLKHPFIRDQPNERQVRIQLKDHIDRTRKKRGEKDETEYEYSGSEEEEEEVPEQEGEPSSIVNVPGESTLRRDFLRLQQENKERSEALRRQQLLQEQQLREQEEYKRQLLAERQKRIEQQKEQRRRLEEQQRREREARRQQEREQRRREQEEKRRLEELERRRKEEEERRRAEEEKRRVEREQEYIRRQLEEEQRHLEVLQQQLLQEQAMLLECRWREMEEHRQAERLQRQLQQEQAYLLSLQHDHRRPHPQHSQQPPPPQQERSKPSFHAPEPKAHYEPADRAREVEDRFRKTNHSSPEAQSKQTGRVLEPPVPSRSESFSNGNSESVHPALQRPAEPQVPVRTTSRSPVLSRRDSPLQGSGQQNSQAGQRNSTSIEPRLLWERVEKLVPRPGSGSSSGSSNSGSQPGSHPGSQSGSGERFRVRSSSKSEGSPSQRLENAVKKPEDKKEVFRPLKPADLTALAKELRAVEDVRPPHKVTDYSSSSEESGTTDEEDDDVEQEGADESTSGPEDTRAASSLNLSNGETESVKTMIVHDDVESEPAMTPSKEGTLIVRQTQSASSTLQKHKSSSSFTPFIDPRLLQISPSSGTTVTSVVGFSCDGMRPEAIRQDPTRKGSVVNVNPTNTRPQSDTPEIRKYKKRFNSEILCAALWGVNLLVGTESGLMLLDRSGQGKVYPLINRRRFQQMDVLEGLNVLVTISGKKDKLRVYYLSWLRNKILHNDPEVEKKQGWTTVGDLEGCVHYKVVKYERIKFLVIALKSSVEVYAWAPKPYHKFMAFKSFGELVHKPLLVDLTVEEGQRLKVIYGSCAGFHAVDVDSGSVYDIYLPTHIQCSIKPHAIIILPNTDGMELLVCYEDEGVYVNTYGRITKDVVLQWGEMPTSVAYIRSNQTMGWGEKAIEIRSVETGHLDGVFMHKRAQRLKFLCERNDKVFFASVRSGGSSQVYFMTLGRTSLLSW
Sequence of UniProt Q96GD4 (Q96GD4 whole entry): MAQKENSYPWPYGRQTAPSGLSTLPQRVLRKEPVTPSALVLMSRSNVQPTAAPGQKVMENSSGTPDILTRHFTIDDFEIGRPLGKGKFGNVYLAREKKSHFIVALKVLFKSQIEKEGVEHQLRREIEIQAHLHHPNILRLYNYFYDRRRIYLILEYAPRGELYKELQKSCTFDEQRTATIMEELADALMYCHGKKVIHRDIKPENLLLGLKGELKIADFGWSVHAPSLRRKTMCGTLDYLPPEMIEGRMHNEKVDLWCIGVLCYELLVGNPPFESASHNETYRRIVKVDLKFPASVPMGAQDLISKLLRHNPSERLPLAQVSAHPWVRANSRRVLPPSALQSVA

Usually inhibition stands for the change of the read-out against control, counted positive when it falls. For `COc1ccccc1C1=C(Nc2ccccc2)C(=O)NC1=O`, the inhibition in test [1] is 8.25%; in test [2], 4.06%; in [3], 5.05%; in [4], 0.97%; in test [5], -1.48%; in [6], 33.3%. For the same compound, the inhibition was 73.2% in test [7]; 1.42% in [8]; 13.3% in test [9]; 5.12% in test [10]; 10.6% in [11]; 4.12% in test [12]. For the same compound, the inhibition in test [13] is 3.81%; in test [14] it was 3.76%; in test [15] it was 7.59%; in [16] it was 10.3%; in test [17], 44%; in test [18], 9.92%. Further, the figures for the inhibition in test [19] and in [20] were 34.2% and 1.37%, respectively.

As for `Cc1cccc(Oc2nccc(-c3c(-c4ccc(F)cc4)ncn3C3CCNCC3)n2)c1C`, the inhibition in test [1] worked out at 1.24%; in test [2] it was 3.65%; in [3], 2.08%; in test [4], 0.24%; in [5] it was 3.19%; in [6], 5.07%. In addition, the inhibition is 6.96% in test [7]; 2.15% in [8]; 6.26% in [9]; 5.29% in test [10]; 7.88% in test [11]; 3.52% in test [12]. Besides, the inhibition worked out at 4.43% in test [13]; 6.85% in [14]; 9.99% in [15]; 4.49% in test [16]; 7.42% in test [17]; 6.1% in test [18]. Moreover, the inhibition was 6.56% in test [19] and -2.61% in test [20].

Turning to `COc1ccccc1Oc1nccc(-c2c(-c3ccc(F)cc3)ncn2C2CCNCC2)n1`, the inhibition in [1] is 4.15%; in test [2], 5.64%; in [3] it was 7.08%; in test [4] it was 3.7%; in [5], 8.68%; in test [6], 6.7%. In addition, the inhibition in test [7] worked out at 9.79%; in test [8] it was 1.58%; in [9], 9.76%; in test [10], 7.09%; in test [11], 13.5%; in test [12], 4.01%. Also, the inhibition in test [13] is 4.05%; in [14], 10.4%; in [15], 15.5%; in test [16], 9.34%; in test [17], 10.6%; in test [18] it was 12.3%. Further, the inhibition in test [19] is 12.1%; in [20] it was 2.84%.

For the compound `Fc1ccc(-c2ncn(C3CCNCC3)c2-c2ccnc(Oc3cccc(C(F)(F)F)c3)n2)cc1`, the inhibition turned out to be 5.75% in test [1]; 4.03% in [2]; 5.56% in test [3]; 0.56% in test [4]; 3.96% in test [5]; 9.92% in test [6]. Also, the inhibition in [7] was determined as 11.9%; in test [8], 2%; in test [9], 4.65%; in test [11] it was 8.02%; in [12] it was 5.6%; in [13] it was 5.27%. Besides, the inhibition is 6.52% in test [14]; 8.63% in test [15]; 3.99% in test [16]; 5.74% in test [17]; 8.08% in test [18]; 7.64% in test [19]. Further, the inhibition in [20] was -0.46%.

With `NC(=O)CCc1ccccc1Oc1nccc(-c2c(-c3ccc(F)cc3)ncn2C2CCNCC2)n1`, the inhibition in test [1] was -2.06%; in test [2] it was -1.43%; in test [3], 5.06%; in test [4], -4.59%; in test [5] it was -1.84%; in test [6], 0.41%. The inhibition was 3.67% in test [7]; 2.43% in test [8]; 2.47% in test [9]; 0.21% in test [10]; -0.11% in [11]; -1.47% in [12]. Further, the inhibition is 0.22% in test [13]; -1.02% in test [14]; -2.5% in test [15]; -2.51% in [16]; -1.41% in test [17]; -3.56% in test [18]. Moreover, the inhibition in test [19] was -1.93%; in test [20], -0.05%.

`CC(C)(C)c1ccc(Oc2nccc(-c3c(-c4ccc(F)cc4)ncn3C3CCNCC3)n2)cc1`: the inhibition in [1] was 3.71%; in test [2], 5.11%; in [3], 6.89%; in [4] it was -0.85%; in test [5], 4.1%; in test [6], 5.31%. Further, the inhibition stood at 8.19% in test [7]; 3.38% in test [8]; 25.9% in [9]; 2.74% in [10]; 11.7% in test [11]; 4.73% in [12]. Besides, the inhibition in test [13] was 12.6%; in [14] it was 5.59%; in test [15], 13%; in [16], 3.52%; in [17], 7.03%; in test [18], 3.93%. The inhibition was 6.25% in test [19] and -1.34% in test [20].

In the case of `O=C1NC(=O)C(c2ccccc2)=C1Nc1ccccc1`, the inhibition in test [1] is 10.8%; in test [2], 1.6%; in test [3], 3.65%; in [4], 1.24%; in test [5] it was -1.21%; in test [6] it was 7.59%. The inhibition in test [7] turned out to be 32.4%; in test [8], 2.02%; in [9], 7.67%; in test [10] it was 10.1%; in test [11], 19.6%; in test [12], 6.95%. Besides, the inhibition was found to be 5.61% in test [13]; 8.4% in test [14]; 17.7% in [15]; 9.67% in test [16]; 31.7% in test [17]; 7.25% in test [18]. Moreover, the figures for the inhibition in [19] and in test [20] were 22.4% and 2.05%, respectively.
